We go through 31 molecules from publication PMC9911399, “Two distinct binding modes provide the RNA-binding protein RbFox with extraordinary sequence specificity”.

To fix the notation:
B1: AGGAACA (DNA:RNA)
RNA: GGGAGACCGGAAUUCAGAUUGUCCAGGAACAUUAAAUCCCGUCGUAGCCACCA
DNA 1: CAATCTGAATTCCGGTCTCCC
DNA 2: TGGTGGCTACGACGGGATT
B2: AUGCAAG (DNA:RNA)
RNA: B1 RNA with G26U, A28C, C30A, A31G
DNA 1: CAATCTGAATTCCGGTCTCCC
DNA 2: TGGTGGCTACGACGGGATT
B3: AUUUCGG (DNA:RNA)
RNA: B1 RNA with G26U, G27U, A28U, A29C, C30G, A31G
DNA 1: CAATCTGAATTCCGGTCTCCC
DNA 2: TGGTGGCTACGACGGGATT
B4: ACCUUGU (DNA:RNA)
RNA: B1 RNA with G26C, G27C, A28U, A29U, C30G, A31U
DNA 1: CAATCTGAATTCCGGTCTCCC
DNA 2: TGGTGGCTACGACGGGATT
B5: CAACACU (DNA:RNA)
RNA: B1 RNA with A25C, G26A, G27A, A28C, A31U
DNA 1: CAATCTGAATTCCGGTCTCCC
DNA 2: TGGTGGCTACGACGGGATT
B6: UGCCACU (DNA:RNA)
RNA: B1 RNA with A25U, G27C, A28C, A31U
DNA 1: CAATCTGAATTCCGGTCTCCC
DNA 2: TGGTGGCTACGACGGGATT
B7: ACUGGAG (DNA:RNA)
RNA: B1 RNA with G26C, G27U, A28G, A29G, C30A, A31G
DNA 1: CAATCTGAATTCCGGTCTCCC
DNA 2: TGGTGGCTACGACGGGATT
B8: AAGUGAG (DNA:RNA)
RNA: B1 RNA with G26A, A28U, A29G, C30A, A31G
DNA 1: CAATCTGAATTCCGGTCTCCC
DNA 2: TGGTGGCTACGACGGGATT
B9: GUUCCGU (DNA:RNA)
RNA: GGGAGACCGGAAUUCAGAUUGUCCGUUCCGUUUAAAUCCCGUCGUAGCCACCA
DNA 1: CAATCTGAATTCCGGTCTCCC
DNA 2: TGGTGGCTACGACGGGATT
B10: UCGAGCU (DNA:RNA)
RNA: B1 RNA with A25U, G26C, A29G, A31U
DNA 1: CAATCTGAATTCCGGTCTCCC
DNA 2: TGGTGGCTACGACGGGATT
B11: AUCUGAG (DNA:RNA)
RNA: B1 RNA with G26U, G27C, A28U, A29G, C30A, A31G
DNA 1: CAATCTGAATTCCGGTCTCCC
DNA 2: TGGTGGCTACGACGGGATT
B12: CGCUAUA (DNA:RNA)
RNA: B1 RNA with A25C, G27C, A28U, C30U
DNA 1: CAATCTGAATTCCGGTCTCCC
DNA 2: TGGTGGCTACGACGGGATT
B13: UGGACCU (DNA:RNA)
RNA: B1 RNA with A25U, A29C, A31U
DNA 1: CAATCTGAATTCCGGTCTCCC
DNA 2: TGGTGGCTACGACGGGATT
B14: GCUUGGA (DNA:RNA)
RNA: B9 RNA with U26C, C28U, C29G, U31A
DNA 1: CAATCTGAATTCCGGTCTCCC
DNA 2: TGGTGGCTACGACGGGATT
B15: UAGUUUG (DNA:RNA)
RNA: B1 RNA with A25U, G26A, A28U, A29U, C30U, A31G
DNA 1: CAATCTGAATTCCGGTCTCCC
DNA 2: TGGTGGCTACGACGGGATT
B16: GAGCACG (DNA:RNA)
RNA: B1 RNA with A25G, G26A, A28C, A31G
DNA 1: CAATCTGAATTCCGGTCTCCC
DNA 2: TGGTGGCTACGACGGGATT
B17: ACAGGGC (DNA:RNA)
RNA: B1 RNA with G26C, G27A, A28G, A29G, C30G, A31C
DNA 1: CAATCTGAATTCCGGTCTCCC
DNA 2: TGGTGGCTACGACGGGATT
B18: UCUCAGC (DNA:RNA)
RNA: B9 RNA with G25U, U26C, C29A, U31C
DNA 1: CAATCTGAATTCCGGTCTCCC
DNA 2: TGGTGGCTACGACGGGATT
B19: GCUCAGU (DNA:RNA)
RNA: B9 RNA with U26C, C29A
DNA 1: CAATCTGAATTCCGGTCTCCC
DNA 2: TGGTGGCTACGACGGGATT
B20: CCAGCCA (DNA:RNA)
RNA: B1 RNA with A25C, G26C, G27A, A28G, A29C
DNA 1: CAATCTGAATTCCGGTCTCCC
DNA 2: TGGTGGCTACGACGGGATT
B21: GCCCGAA (DNA:RNA)
RNA: B9 RNA with U26C, U27C, C29G, G30A, U31A
DNA 1: CAATCTGAATTCCGGTCTCCC
DNA 2: TGGTGGCTACGACGGGATT
B22: AGACGAG (DNA:RNA)
RNA: B1 RNA with G27A, A28C, A29G, C30A, A31G
DNA 1: CAATCTGAATTCCGGTCTCCC
DNA 2: TGGTGGCTACGACGGGATT
B23: GGGUCUG (DNA:RNA)
RNA: B1 RNA with A25G, A28U, A29C, C30U, A31G
DNA 1: CAATCTGAATTCCGGTCTCCC
DNA 2: TGGTGGCTACGACGGGATT
B24: CUCCCCG (DNA:RNA)
RNA: B9 RNA with G25C, U27C, G30C, U31G
DNA 1: CAATCTGAATTCCGGTCTCCC
DNA 2: TGGTGGCTACGACGGGATT
B25: CCAGCCC (DNA:RNA)
RNA: B1 RNA with A25C, G26C, G27A, A28G, A29C, A31C
DNA 1: CAATCTGAATTCCGGTCTCCC
DNA 2: TGGTGGCTACGACGGGATT
B26: UCAGGAC (DNA:RNA)
RNA: GGGAGACCGGAAUUCAGAUUGUCCUCAGGACUUAAAUCCCGUCGUAGCCACCA
DNA 1: CAATCTGAATTCCGGTCTCCC
DNA 2: TGGTGGCTACGACGGGATT
B27: GUGGUGG (DNA:RNA)
RNA: B9 RNA with U27G, C28G, C29U, U31G
DNA 1: CAATCTGAATTCCGGTCTCCC
DNA 2: TGGTGGCTACGACGGGATT
B28: GGGCUCU (DNA:RNA)
RNA: B1 RNA with A25G, A28C, A29U, A31U
DNA 1: CAATCTGAATTCCGGTCTCCC
DNA 2: TGGTGGCTACGACGGGATT
B29: CCAGGGU (DNA:RNA)
RNA: B26 RNA with U25C, A30G, C31U
DNA 1: CAATCTGAATTCCGGTCTCCC
DNA 2: TGGTGGCTACGACGGGATT
B30: UGCGUAU (DNA:RNA)
RNA: B26 RNA with C26G, A27C, G29U, C31U
DNA 1: CAATCTGAATTCCGGTCTCCC
DNA 2: TGGTGGCTACGACGGGATT
B31: UUUAUAU (DNA:RNA)
RNA: B9 RNA with G25U, C28A, C29U, G30A
DNA 1: CAATCTGAATTCCGGTCTCCC
DNA 2: TGGTGGCTACGACGGGATT

Positions count from the first letter of the chain named. The list shows a part of the results.

For the assay, the target named is T1, RBFOX1 RRM RbFoxmut (Fox-RRM*) (Homo sapiens, UniProt Q9NWB1 109-208, R118D;E147R;N151S;E152T).
T1 sequence: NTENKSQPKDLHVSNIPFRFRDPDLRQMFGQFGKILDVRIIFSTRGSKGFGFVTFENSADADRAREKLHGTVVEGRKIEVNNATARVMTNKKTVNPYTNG
The assay is described as follows: EMSA; HiTS-Eq, 1 nM pool, 10 min; buffer printed only for the single-RNA assays: 10 mM Tris pH 7.5, 150 mM NaCl, 3.4 mM EDTA, 0.001% NP-40, 30 C. The settings on record: tags: His6 N-terminal (pET28a); label: 5' 32P. An outline of the steps: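 Purified RbFox RRM (wild type or mutant) was equilibrated for 10 min in 50 µL with 1 nM of a 5′-radiolabelled pool of RNA with 7 randomized nucleotides, its flanks annealed to DNA oligonucleotides, across increasing protein concentrations. Free RNA was separated by 8% native PAGE, excised, reverse-transcribed, PCR-barcoded and sequenced on an Illumina HiSeq 2500. Relative association constants came from read-count changes of each variant against the control reaction, normalised to the cognate motif.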
In general terms: A gel shift assay detects complexes by their altered migration in electrophoresis.
As to B1, the binding signal was 0.082 KA relative to UGCAUGU. The value for B2 was 0.131 KA relative to UGCAUGU; that for B3 was 0.0638 KA relative to UGCAUGU; that for B4 was 0.161 KA relative to UGCAUGU.

Turning to B5, the binding signal is 0.0603 KA relative to UGCAUGU. The value for B6 was 0.0751 KA relative to UGCAUGU.

Turning to B7, the binding signal is 0.0916 KA relative to UGCAUGU. Take B8: the binding signal is 0.137 KA relative to UGCAUGU. As for B9, the binding signal was 0.127 KA relative to UGCAUGU. As to B10, the binding signal is 0.0817 KA relative to UGCAUGU. With B11, the binding signal is 0.0945 KA relative to UGCAUGU.

On to B12, for which the binding signal is 0.137 KA relative to UGCAUGU. With B13, the binding signal was 0.0912 KA relative to UGCAUGU. Regarding B14, the binding signal is 0.0637 KA relative to UGCAUGU. Regarding B15, the binding signal is 0.24 KA relative to UGCAUGU.

Regarding B16, the binding signal was 0.287 KA relative to UGCAUGU.

In the case of B17, the binding signal is 0.0979 KA relative to UGCAUGU. For the molecule B18, the binding signal was 0.0921 KA relative to UGCAUGU. Consider B19, for which the binding signal was 0.0767 KA relative to UGCAUGU. Take B20: the binding signal was 0.0765 KA relative to UGCAUGU.

For B21, the binding signal was 0.0876 KA relative to UGCAUGU. For B22, the binding signal was 0.109 KA relative to UGCAUGU. The value for B23 was 0.317 KA relative to UGCAUGU. Turning to B24, the binding signal was 0.107 KA relative to UGCAUGU. For B25, the binding signal is 0.0899 KA relative to UGCAUGU. The result for B26 reads 0.0849 KA relative to UGCAUGU. As to B27, the binding signal was 0.15 KA relative to UGCAUGU. In the case of B28, the binding signal was 0.0774 KA relative to UGCAUGU. B29: the binding signal is 0.0867 KA relative to UGCAUGU.

As for B30, the binding signal was 0.143 KA relative to UGCAUGU.

As to B31, the binding signal is 0.0943 KA relative to UGCAUGU.
